Measurements taken from publication PMC7819943, “Rice protein-binding microarrays: a tool to detect cis-acting elements near promoter regions in rice”.
This is one part of the list.

The sequences below were run against T1, OsWOX13 (Oryza sativa, UniProt Q5QMM3 1-267) (assay: protein-binding microarray (RPBM); PBS, 2% BSA, 51.3 ng/ul salmon testes DNA, 50 uM zinc acetate, 200 nM TF, 25 C, 1 h; high values mean tight binding). Settings: protein: recombinant; tags: N-terminal polyhistidine and DsRed monomer fusion (pET32a); label: CyDye5-dUTP incorporated in the synthesized complementary strand; 3' TTTTT single-stranded linker to array surface; dsDNA, one strand shown.
T1 sequence: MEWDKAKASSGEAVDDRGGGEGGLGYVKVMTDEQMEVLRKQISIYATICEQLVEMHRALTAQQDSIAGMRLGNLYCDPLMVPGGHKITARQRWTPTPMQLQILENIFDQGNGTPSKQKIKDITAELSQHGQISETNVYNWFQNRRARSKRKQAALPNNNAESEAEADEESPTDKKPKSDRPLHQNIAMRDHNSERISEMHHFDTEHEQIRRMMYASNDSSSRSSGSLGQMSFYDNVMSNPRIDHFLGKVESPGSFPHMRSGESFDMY
Method in brief: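 The binding signal is fluorescence intensity per array feature (arbitrary units). Readings came from an Axon 4000B scanner after a washed, 2% BSA-blocked, double-stranded custom Agilent array had been incubated for 1 h at 25 °C with 200 nM protein and 50 µM zinc acetate. The protein was a Ni–NTA-purified transcription factor fused N-terminally to polyhistidine and DsRed, expressed in E. coli BL21-CodonPlus.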
With “AACACGTAAATTTATAGTACGATGATACCGTACGAGATTGCGGAGTCACCTAGTGCAG” the binding signal was 5600 fluorescence intensity (a.u.). “AGGCCGTCCTTAGTCAATCAAGACCGTCCATTCTCCCGAACGGAGTCACCTAGTGCAG” was tested, and the binding signal was 6830 fluorescence intensity (a.u.). In the case of “CATATCCTAATTGGCTAGTAGTATGGATTTAGACAGACAACGGAGTCACCTAGTGCAG”, the binding signal is reported as 26500 fluorescence intensity (a.u.). In the case of “GAGATTAGCTAACAAAATGTGTATATCCCCATGAGATTGGCGGAGTCACCTAGTGCAG”, the binding signal is reported as 5740 fluorescence intensity (a.u.). “ATTCAAAGGTTAATTGGATCATACCATTGCAAAATTACCGCGGAGTCACCTAGTGCAG” was tested, and the binding signal was 6760 fluorescence intensity (a.u.). In the case of “ACCTACTAATAACTAGTTAATTGTCTATTGTGCCCCTAGTCGGAGTCACCTAGTGCAG”, the binding signal is reported as 21700 fluorescence intensity (a.u.). “ACTATTTTATTTCCCATTGACAGATTATACAGTGACATGCCGGAGTCACCTAGTGCAG” was tested, and the binding signal was 9790 fluorescence intensity (a.u.). With “TTTAATTGGACATTTATTCTGTCATGATATTTTGAATATTCGGAGTCACCTAGTGCAG” the binding signal was 44300 fluorescence intensity (a.u.). For “AATAAATTTATATAGAAAATAATCTAAACGATTTATAATACGGAGTCACCTAGTGCAG”, the binding signal was 3680 fluorescence intensity (a.u.). In the case of “ATGCGATTGACTAATTAATTGACTGGGCTTTGGCATTGGGCGGAGTCACCTAGTGCAG”, the binding signal is reported as 65500 fluorescence intensity (a.u.). “ATAAATTTATATTTGAAAACTTTTAACTTAGATTTGAAAACGGAGTCACCTAGTGCAG” was tested, and the binding signal was 17100 fluorescence intensity (a.u.). With “TGCGGTGATTTGAACCTTGCTGCTGTGATTTCAGTTTGGTCGGAGTCACCTAGTGCAG” the binding signal was 19200 fluorescence intensity (a.u.). For “AAAAGCATAATTATACACAGTAATAGGCGTTCAAGATATTCGGAGTCACCTAGTGCAG”, the binding signal was 5610 fluorescence intensity (a.u.). “CGTGTCAACAATGAATAATTTGTTTCTCAAATTAGTCCGACGGAGTCACCTAGTGCAG” was tested, and the binding signal was 4430 fluorescence intensity (a.u.). For “TAAAATTGTCTGTGTTGTTTTGCCGTATAATCGGGATGGCCGGAGTCACCTAGTGCAG”, the binding signal was 3220 fluorescence intensity (a.u.). In the case of “TTAATTTAAGATAGAAAGAAATTGTTCGCTTCACCTAGAACGGAGTCACCTAGTGCAG”, the binding signal is reported as 5410 fluorescence intensity (a.u.). “GAAGATTGATACTATTACAACAAAGGACACAAAATGATTCCGGAGTCACCTAGTGCAG” was tested, and the binding signal was 33500 fluorescence intensity (a.u.). In the case of “TTTAAAATGATAATTTAACGATATATAACAATAGACGGCACGGAGTCACCTAGTGCAG”, the binding signal is reported as 24900 fluorescence intensity (a.u.). With “GAATTCCAATCAGAGACACGTCCATGTTCCATCATCGCCCCGGAGTCACCTAGTGCAG” the binding signal was 8960 fluorescence intensity (a.u.). With “GGTGTGTATGATCTAAACATAATTAATATATTATAACACCCGGAGTCACCTAGTGCAG” the binding signal was 5340 fluorescence intensity (a.u.). For “TGTGATTTTCTTGTGATTGGGATGTATGGTAATGCTAGGGCGGAGTCACCTAGTGCAG”, the binding signal was 48000 fluorescence intensity (a.u.). “ATCATGCTCTTTGATTAATTTGATGTCAAGATCGATCGATCGGAGTCACCTAGTGCAG” was tested, and the binding signal was 12600 fluorescence intensity (a.u.). For “TATAATTATTAAGTACTCCCTCCGTTCCAAAATATAGTAACGGAGTCACCTAGTGCAG”, the binding signal was 3630 fluorescence intensity (a.u.). For “TTTATGTTAGTGCTAGTGATTAGTACTTAAACATTCAGAGCGGAGTCACCTAGTGCAG”, the binding signal was 4670 fluorescence intensity (a.u.). For “ATAGAATTGTAGACTTCAATTTACTGTCGTGACTTTTCCACGGAGTCACCTAGTGCAG”, the binding signal was 3310 fluorescence intensity (a.u.). With “GTGGGGACTAATTAATTAATGCGGTGATGTGGAGCTGATTCGGAGTCACCTAGTGCAG” the binding signal was 21800 fluorescence intensity (a.u.). In the case of “AGAGTAATTGCCCACATCGCCCAGTCCCAGACCCAGCTGCCGGAGTCACCTAGTGCAG”, the binding signal is reported as 11100 fluorescence intensity (a.u.). With “ATCAATAGATTGGTGCCTCGTTGGATCAAAAGCAAGGCCTCGGAGTCACCTAGTGCAG” the binding signal was 28900 fluorescence intensity (a.u.). “ACATGTTAATTATAATATAATAATAGGTTAAATATACACACGGAGTCACCTAGTGCAG” was tested, and the binding signal was 25800 fluorescence intensity (a.u.). “AGTAAATTTGTGCCCATTTCACGGTAGTACATCATCTTTCCGGAGTCACCTAGTGCAG” was tested, and the binding signal was 9360 fluorescence intensity (a.u.). In the case of “TTCTGATGATCTGTTGAAACTGATCATAACCCAATACTATCGGAGTCACCTAGTGCAG”, the binding signal is reported as 4040 fluorescence intensity (a.u.). In the case of “CAATTGATAGTATTATTAATGTTGAAAGTTGATGTGTGTTCGGAGTCACCTAGTGCAG”, the binding signal is reported as 9450 fluorescence intensity (a.u.). With “CAGCCAATCACCAAAATATATTTTGCATTGTGAGGAGGGGCGGAGTCACCTAGTGCAG” the binding signal was 14100 fluorescence intensity (a.u.). For “ATGTGATAGGGATTTAAAAGTTTTAGTCTCATCTAAACAGCGGAGTCACCTAGTGCAG”, the binding signal was 8680 fluorescence intensity (a.u.). In the case of “TATTGATTAAATTTAATTTATAGATAGACTAATATTTTACCGGAGTCACCTAGTGCAG”, the binding signal is reported as 29800 fluorescence intensity (a.u.). With “CCATCATTTGATCAATCGGATGTAGTCGCCAGCTTTAGGACGGAGTCACCTAGTGCAG” the binding signal was 3220 fluorescence intensity (a.u.). For “TGCATATTGTTATAATCAAGATTATATACAATTTCTCACTCGGAGTCACCTAGTGCAG”, the binding signal was 3780 fluorescence intensity (a.u.). In the case of “CCTCCAATTTACCACGCCCTAAACAATATGTGATATTAAGCGGAGTCACCTAGTGCAG”, the binding signal is reported as 4210 fluorescence intensity (a.u.). “CGCAAATAATTTCAATATATACTATGCAATTCTATACATTCGGAGTCACCTAGTGCAG” was tested, and the binding signal was 9340 fluorescence intensity (a.u.). With “CGTGTGACAGGCCCATTAGATTAGACCTAGATCTGTCTCGCGGAGTCACCTAGTGCAG” the binding signal was 25000 fluorescence intensity (a.u.). With “ATATCAATCTATCCCATCGAGTCGGCTGCACTGATCGATTCGGAGTCACCTAGTGCAG” the binding signal was 9870 fluorescence intensity (a.u.). With “CACTGCATAATTATTGCCATCTGATCTGAAGCTTCAGGGGCGGAGTCACCTAGTGCAG” the binding signal was 12300 fluorescence intensity (a.u.). “GATGGATGGGGTGGGGACTGGGGATGGATGGAGGCGGCGGCGGAGTCACCTAGTGCAG” was tested, and the binding signal was 7980 fluorescence intensity (a.u.). “ATTAACGACTTTTAATTTGAAACGGATTGAGTAGCTAGTTCGGAGTCACCTAGTGCAG” was tested, and the binding signal was 16100 fluorescence intensity (a.u.). In the case of “GCAGCTGATGTTTGATAGATTAGACGGTGTATAGTGCTGACGGAGTCACCTAGTGCAG”, the binding signal is reported as 12500 fluorescence intensity (a.u.). In the case of “TTGGTTGAAATTGAAACGATGTGACGGAAAAGTTGGAAGTCGGAGTCACCTAGTGCAG”, the binding signal is reported as 3520 fluorescence intensity (a.u.). “TATGTTAATTATGCCTAGATTATAGTGTTATAGTATATGGCGGAGTCACCTAGTGCAG” was tested, and the binding signal was 32500 fluorescence intensity (a.u.). With “TCTGAATGATATTGCCAGTCTTGGCATGCAGTTACCACCTCGGAGTCACCTAGTGCAG” the binding signal was 4040 fluorescence intensity (a.u.). In the case of “AATTAATCACGCGCTAATGGACCGTTCCGTTTTCCGTGCGCGGAGTCACCTAGTGCAG”, the binding signal is reported as 31000 fluorescence intensity (a.u.). In the case of “GCTAGATTGGTGGCGTGATCTTGATGGTCTGCTCACCGCCCGGAGTCACCTAGTGCAG”, the binding signal is reported as 39400 fluorescence intensity (a.u.). In the case of “GGCAGGATTATTACGAGATAGAAACCTTAACCAATACGGTCGGAGTCACCTAGTGCAG”, the binding signal is reported as 3520 fluorescence intensity (a.u.). With “TAAATATAATTGTTTGAAAATAATATAAATAAACACGCTCCGGAGTCACCTAGTGCAG” the binding signal was 12600 fluorescence intensity (a.u.). “ATACTAATTATGACACACTGATATATATAACACGGGTATCCGGAGTCACCTAGTGCAG” was tested, and the binding signal was 31600 fluorescence intensity (a.u.). In the case of “GGTATATTATGATTAAAATCCATGATATATTTTATGTACTCGGAGTCACCTAGTGCAG”, the binding signal is reported as 7040 fluorescence intensity (a.u.).
